Drawing on PubChem BioAssay AID463173 (ICCB-Longwood Screening Facility, Harvard Medical School, 2010), this text covers survival for 91 compounds.

In all, about 52,000 compounds went through this assay and about 4,300 (8.3%) were called active. Rule as the data show it: active = survival mostly below about 52% (no sharp cut-off); inactive = mostly above about 56%. This is one part of the list.

The assay concerns DeltatarO mutant. As to the kind of experiment: growth inhibition of S. aureus wild type versus tarO mutant, primary screen, teichoic acid synthesis inhibitors, RN4220, OD600 (AID 463173). Conditions: OD600, 18 h, active compounds read low, screened at 18.75 µg/mL (by protocol).
As for `CCOc1ccc(-c2cc(C)n3nc(C(=O)Nc4cc(Cl)ccc4O)cc3n2)cc1`, the survival is inactive: 62%.

For `COc1cccc(NC(=O)Cn2c(=O)n(Cc3nc(-c4ccccc4)no3)c(=O)c3ccccc32)c1`, the survival is inactive: 86%. The figure for `COc1ccccc1/C=C(\C#N)c1nc(-c2cc3ccccc3oc2=O)cs1` is active: 56%; for `CCC(=O)Nc1ccc(S(=O)(=O)NCc2cccn2Cc2cccc(C)c2)cc1` it is inactive: 80%. Turning to `CCOC(=O)N1CCC(NC(=O)c2cnn(-c3ccccc3)c2C2CCN(C(=O)OC(C)(C)C)CC2)CC1`, the survival is inactive: 117%. On to `Cc1ccc(C(=O)NC(C)C)cc1C`, for which the survival was inactive: 66%. The same measure for `COc1ccc(S(=O)(=O)NCCc2sc(-c3ccccc3)nc2C)cc1OC`: inactive: 95%; for `CCc1ccccc1NC(=O)CSc1ncc2c(n1)-c1ccccc1N(C)S2(=O)=O`: inactive: 124%; for `COc1ccc(-c2nc3cc(NC(=O)COc4ccc(F)cc4)ccc3o2)cc1`: inactive: 62%. With `CN1C(=O)CSC1=Nc1cccc(C(=O)O)c1`, the survival is inactive: 89%. The figure for `CN1/C(=N\N)c2cccc3cccc1c23` is inactive: 83%; for `COc1ccc(S(=O)(=O)N2CCC(C(=O)N3CCCC3)CC2)cc1OC` it is inactive: 84%; for `Cc1csc2nc(-c3cccc(NC(=O)c4ccc(S(N)(=O)=O)cc4)c3)cn12` it is inactive: 122%. Take `O=C(CCNS(=O)(=O)c1cccc2nsnc12)Nc1ccc(F)cc1`: the survival was inactive: 56%. The same measure for `Cn1c(=O)c2c(-c3ccccc3)n3c(c2n(C)c1=O)C(c1cc(Cl)ccc1O)Nc1ccccc1-3` (stereo unspecified): active: 1%; for `O=C(CSc1nnc(-c2cccnc2)o1)OC1CCCCC1`: inactive: 53%; for `CSc1nc(NC(C)C)nc(N(C)C(N)=O)n1`: inactive: 104%.

In the case of `Cc1ccc2cccc(NC(=O)c3ccc(-c4ccc(Cl)cc4Cl)o3)c2n1`, the survival is inactive: 67%. The figure for `COc1ccc(OC)c(CNC(=O)c2cc(=O)[nH]c3ccc(S(=O)(=O)N4CCCCC4C)cc23)c1` (stereo unspecified) is active: 6%. The same measure for `Cc1cccc(-n2ncc(C(=O)NCc3ccc4c(c3)OCO4)c2C2CCN(C(=O)OC(C)(C)C)CC2)c1`: inactive: 91%. As for `CCc1ccc(NS(=O)(=O)c2ccc3[nH]c4c(c3c2)CCCCCC4)cc1`, the survival is inactive: 86%. The same measure for `Cc1ccc(CNC(=O)CSc2c(C(C)C)cnc3c2c(=O)n(C)c(=O)n3C)cc1`: inactive: 85%. For the compound `O=C(CSCc1ccc(F)cc1)NCc1ccc(F)cc1`, the survival is inactive: 94%. The same measure for `Cc1cccc(CC(=O)N2CC(=O)Nc3ccc(F)cc3C2c2ccccc2)c1` (stereo unspecified): active: 53%.

With `COc1cc(NC(=O)CCCc2nnc3n(C)c(=O)c4sccc4n23)cc(OC)c1OC`, the survival was inactive: 76%. The figure for `CCc1ccccc1NC(=O)Nc1ccc2snnc2c1` is active: 41%; for `CC(C)c1ccc2nc(SCC(=O)N3CCCC3)c(C#N)cc2c1` it is inactive: 92%.

With `CCC(CC)C(=O)N1CCc2cc(OC)c(OC)cc2C1COc1ccc(F)cc1` (stereo unspecified), the survival is inactive: 73%. The figure for `O=C(NCC1CC1)Nc1c[nH]c2ccccc2c1=O` is inactive: 92%; for `CCOC(=O)c1c(-c2ccccc2)csc1NC(=O)c1nc(SCC)ncc1Cl` it is inactive: 87%. With `Cc1ccc(-c2nc3scc(CCNS(=O)(=O)c4ccc(Oc5ccccc5)cc4)n3n2)cc1`, the survival was inactive: 115%. The figure for `CCc1cccc(C)c1NC(=O)CN1C(=O)c2cccc3cccc1c23` is inactive: 61%; for `COCCNC(=S)N1CCCN(c2nc3cc(C)ccc3cc2C#N)CC1` it is inactive: 96%. The same measure for `Cc1ccc2nc(CSc3nnc(NC(=O)c4ccc(C(C)(C)C)cc4)s3)cc(=O)n2c1`: inactive: 81%. The same measure for `CC(=O)Nc1ccc(NC(=O)c2ncoc2-c2ccco2)cc1`: inactive: 71%; for `CCOc1cc(/C=C(\C#N)C(=O)Nc2ccc(OC)cc2)ccc1OCc1cc(=O)n2nc(CC)sc2n1`: active: 55%. For the compound `CC(C)(C)OC(=O)N1CCC(c2c(C(=O)NCCN3CCOCC3)cnn2-c2ccc(F)cc2F)CC1`, the survival was active: -1%.

For `COc1ccc(-c2cccc(NS(=O)(=O)c3ccc(NC(C)=O)cc3)c2)nn1`, the survival is inactive: 84%. For `CCOc1ccccc1Nc1nc2c(S(=O)(=O)c3ccc(C)cc3)nnn2c2ccsc12`, the survival is inactive: 37%.

On to `Cc1oc(-c2cccc(Br)c2)nc1Cn1c(SCc2cccc(F)c2)nc2cccnc21`, for which the survival is inactive: 80%. The same measure for `O=C(CCC1N=C2c3ccccc3N=C(SCc3cccc(Cl)c3)N2C1=O)NCCc1ccccc1` (stereo unspecified): inactive: 63%; for `COc1ccc(NC(=O)CCS(=O)(=O)c2ccc3c(c2)n(C)c(=O)c(=O)n3C)cc1Cl`: inactive: 91%. The same measure for `COc1ccc(Br)cc1CNC(=O)CSc1n[nH]c(-c2ccccc2)n1`: inactive: 73%; for `CCC(C)[C@H](N)c1nnc(SCc2ccc(Cl)c(Cl)c2)o1` (stereo partly specified): inactive: 47%; for `CCC(C)(C)n1nnnc1C(c1ccc(Cl)cc1)N1CCN(c2nc3ccccc3s2)CC1` (stereo unspecified): inactive: 90%. The same measure for `Cc1ccc(CN2C(=O)C3(c4ccccc42)N(c2ccc(C)c(Cl)c2)C(=O)CS3(=O)=O)cc1` (stereo unspecified): inactive: 54%; for `CCc1nc2sc3c(N4CCCCC4)ncnc3c2c2c1CCCC2`: inactive: 175%; for `COc1cccc(/C=C(\C#N)C(=O)Nc2ccc(NC(C)=O)cc2)c1OC`: inactive: 89%. In the case of `COc1ccc(NC(=O)CSc2cn(CCNC(=O)c3ccc(OC)cc3)c3ccccc23)cc1`, the survival was inactive: 69%. The figure for `CC(C)(C)c1ccc(-c2nnc(-c3ccccc3NC(=O)c3cccc(C(F)(F)F)c3)o2)cc1` is inactive: 69%. The same measure for `CCCN1C(=O)C(Cc2nc3ccccc3c(=O)n2CC)c2cc(Br)ccc21` (stereo unspecified): active: 34%; for `Cc1ccc2[nH]cc(C(=O)N3CCCCC3)c(=O)c2c1`: inactive: 89%.

With `Cc1sc(NC(=O)Nc2ccccc2)c(C(N)=O)c1C`, the survival is inactive: 105%.

Turning to `CC(C)CC1CC(C)(C(=O)CSc2n[nH]c(-c3ccccc3)n2)OC1=O` (stereo unspecified), the survival is inactive: 80%. The same measure for `OCCNc1nc(N2CCOCC2)ncc1F`: inactive: 100%; for `Cc1ccc(C)c(Cn2c(=O)n(Cc3ccccc3)c(=O)c3sc4ccccc4c32)c1`: inactive: 76%. Turning to `CC1=C(C(=O)Nc2ccccc2)C(c2ccc(O)cc2)n2nc(-c3ccc(Cl)cc3)nc2N1` (stereo unspecified), the survival is inactive: 51%. With `Cc1oc2ccc(O)c(CN3CCC(C)CC3)c2c1C(=O)Nc1ccccc1`, the survival is inactive: 72%. The figure for `COc1ccc2c(c1)NC(c1ccc(Cl)cc1)=NC(c1cccs1)=N2` is inactive: 61%. For the compound `Cc1ccc(S(=O)(=O)NCCSc2nnnn2-c2ccccc2)cc1`, the survival is inactive: 71%. For the compound `CCn1c(CN2CCCCC2)nc2cc(NC(=O)COc3ccc(C(C)(C)C)cc3)ccc21`, the survival is inactive: 93%. Consider `CCc1ccc(S(=O)(=O)NCCc2csc3nc(-c4ccccc4)nn23)s1`, for which the survival is inactive: 109%.

As for `CC(C)(C)c1ccc(-c2nc3cc(NC(=O)c4cccc(Br)c4)ccc3o2)cc1`, the survival is inactive: 73%. The same measure for `COc1cccc(CNC(=O)Cn2ncc3c4ccccc4n(Cc4ccccc4)c3c2=O)c1`: inactive: 100%; for `COc1ccc(-n2ccn(CC(=O)NCCc3ccccc3)c(=O)c2=O)cc1OC`: inactive: 109%. The same measure for `COc1cccc(C(=O)NCc2nc(-c3ccccc3)no2)c1OC`: active: 43%; for `Cc1ccc(OC(=O)C23CC4CC(CC(C4)C2)C3)cn1`: inactive: 107%. The same measure for `CCC1CCCCN1C(=O)c1ccccc1F` (stereo unspecified): inactive: 97%; for `CCOc1ccccc1CNC(=O)c1cnc2sc(N3CCCCCC3)nn2c1=O`: inactive: 83%. With `CCOc1ccccc1NC(=O)c1c(NC(=O)c2ccccc2)sc2c1CCCC2`, the survival is inactive: 58%. The same measure for `CCc1ccc(Oc2c(C(F)(F)F)oc3c(CN4CCN(C)CC4)c(O)ccc3c2=O)cc1`: inactive: 127%; for `O=C(Cn1cc(SCc2cccc(Cl)c2)c2ccccc21)N1CCCCCC1`: inactive: 74%; for `CCOC(=O)C1(C)NC(c2ccc(F)cc2)C2C(=O)N(CC)C(=O)C21` (stereo unspecified): inactive: 82%.

For the compound `O=C(Cn1c(=O)n(Cc2ccc3c(c2)OCO3)c(=O)c2oc3ccccc3c21)Nc1ccc(F)cc1`, the survival is inactive: 85%. In the case of `Cc1cccc(NC(=O)CCc2c(C)nc3nc(CNC(=O)c4cccc(F)c4)nn3c2C)c1`, the survival is inactive: 81%. Take `CC(=O)Nn1c(C)nc2ccccc2c1=O`: the survival is inactive: 75%. As for `CCN(CC)C1=CC(=O)OC12CCCCC2`, the survival was inactive: 107%. The same measure for `COc1ccc(Cn2c(SCc3ccc(C(=O)NC4CCCC4)cc3)nc3cccnc32)cc1`: inactive: 69%; for `Cc1ccc(NC(=O)c2ccc(=O)n(CC(=O)Nc3cccc(C)c3)n2)cc1`: inactive: 72%; for `Cc1cccc(C(c2sc3nc(-c4ccco4)nn3c2O)N2CCN(c3ccccc3)CC2)c1` (stereo unspecified): inactive: 76%. The figure for `Cc1ccc(NC(=O)c2ccc(NC(=O)N3CCSc4nc(C)cc(C)c43)cc2)c(Cl)c1` is inactive: 119%; for `O=C(Cn1nc2c(cc1=O)CCCC2)Nc1ccccc1C(F)(F)F` it is inactive: 102%. The figure for `COC(=O)c1ccccc1NC(=O)c1cc2nc(-c3ccc(OC)cc3)cc(C(F)(F)F)n2n1` is active: 36%; for `O=C(CSc1nnc2c(n1)[nH]c1ccccc12)Nc1ccccc1` it is inactive: 89%. In the case of `CCn1cc(CNC(=O)c2cc(-c3ccc(C)c(C)c3)nc3ccccc23)c(C)n1`, the survival was inactive: 123%. The same measure for `CC1CCCCN1C(=O)Cn1c(SCC(=O)N(C)c2ccccc2)nc2ccccc21` (stereo unspecified): inactive: 54%; for `COC(=O)/C(=C\c1c[nH]c2ccccc12)NC(C)=O`: inactive: 77%; for `COC(=O)C1CCN(C(=O)c2ccc(NC(C)=O)cc2)CC1`: inactive: 94%. The same measure for `CCC(=O)NCc1cc(-c2nn(C)c(=O)c3ccccc23)ccc1OC`: inactive: 57%. The figure for `CCn1cc2nc(SCC(=O)Nc3ccc(C)cc3C)n(Cc3ccc(C)cc3)c(=O)c2n1` is inactive: 124%; for `Cc1ccc(C)c(NC(=O)c2ccc3nc(CCc4ccccc4)oc3c2)c1` it is inactive: 55%.
